Test results taken from PubChem BioAssay AID887 (National Center for Advancing Translational Sciences (NCATS), 2007).
The campaign covered roughly 74,000 compounds. About 1,100 (1.5%) were called active. The inconclusive results got no clear call from the source; some entries with a clear call stand among them for comparison. Calls follow the shape of the dose curve; as a rule, active = well fitted inhibition curve with a large enough effect; inconclusive = small, poorly fitted or top-dose-only effect; inactive = no such curve, though single readings can be large or run the other way. Potencies of inconclusive entries are left out as doubtful fits.

These compounds were tested against Polyunsaturated fatty acid lipoxygenase ALOX15 (Homo sapiens) (UniProt P16050) (assay: qHTS Assay for Inhibitors of 15-hLO (15-human lipoxygenase)). Details: purified 15hLO-1, xylenol orange hydroperoxide absorbance; activity change, negative = inhibition: at 57.1 µM (top of the series) unless noted.
Chain of UniProt P16050 (P16050 whole entry, looked up): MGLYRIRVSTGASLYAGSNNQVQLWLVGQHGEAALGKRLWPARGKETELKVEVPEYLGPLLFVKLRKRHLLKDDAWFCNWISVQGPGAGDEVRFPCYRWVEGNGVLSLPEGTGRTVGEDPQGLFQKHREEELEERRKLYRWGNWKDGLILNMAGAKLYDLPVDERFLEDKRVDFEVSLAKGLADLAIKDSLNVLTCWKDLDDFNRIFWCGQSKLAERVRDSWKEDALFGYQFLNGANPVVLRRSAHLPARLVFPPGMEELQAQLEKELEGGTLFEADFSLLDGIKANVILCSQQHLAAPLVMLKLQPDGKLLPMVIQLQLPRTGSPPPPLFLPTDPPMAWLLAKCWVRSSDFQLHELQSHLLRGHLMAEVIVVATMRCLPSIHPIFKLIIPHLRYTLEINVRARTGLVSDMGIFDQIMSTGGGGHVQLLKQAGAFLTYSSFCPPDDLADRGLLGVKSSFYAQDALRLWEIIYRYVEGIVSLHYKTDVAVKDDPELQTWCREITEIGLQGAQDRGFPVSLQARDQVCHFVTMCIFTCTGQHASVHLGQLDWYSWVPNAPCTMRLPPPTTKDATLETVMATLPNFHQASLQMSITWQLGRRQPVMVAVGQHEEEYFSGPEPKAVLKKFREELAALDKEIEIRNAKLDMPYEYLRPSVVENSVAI
Summary of the method: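 Purified human 15hLO-1 (40 nM) in 25 mM Hepes pH 7.5, 0.01% Triton X-100, preincubated 15 min RT with compound, then 50 uM arachidonic acid for 6 min. Hydroperoxide read by ferrous/xylenol orange, 30 min; 573/405 nm absorbance ratio gave progress.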
% is scaled to controls: 0 for no effect and ±100 for the full control effect; potency is read from the fitted curve at half-maximal effect; tags tell the direction and shape of the fitted curve.
Also: nearly all actives have a fitted effect of over 55% in size.

Structure (SMILES) | Potency | activity change, negative = inhibition
COCCCn1c(=N)c(C(=O)NCC2CCCO2)cc2c(=O)n3ccccc3nc21 (configuration not stated) | active: 25.1 µM | 
CC(C)(C)c1ccc(-c2nnc(SCCC#N)n2C2CCCC2)cc1 | inconclusive [inhibitor, single point] | 
NC(=O)SCC(=O)Nc1ccc(Cl)c(Cl)c1 | inconclusive [inhibitor, single point] | 
N#Cc1c(NC(=O)CSc2n[nH]c(Cc3ccccc3)n2)oc(-c2ccccc2)c1-c1ccccc1 | inconclusive [inhibitor, single point] | 
O=C(Nc1ccccc1C(F)(F)F)N1CCN(c2ccc3nnc(-c4ccc(F)cc4)n3n2)CC1 |  | inactive: -7.42%
CS(=O)(=O)N1CCC2(CCN(c3ccccn3)CC2)CC1 |  | inactive: 5.28%
COC(=O)C(C)Sc1nnc2n(-c3cccc(C)c3)c(=O)c3c4c(sc3n12)CCCC4 (configuration not stated) | inconclusive [inhibitor, full curve] | 
COc1cccc2c1NC(C(=O)O)C1CC=CC21 (configuration not stated) |  | inactive: -25.6%
O=C(c1cccc(F)c1)N1CCN(C(=O)c2cc(-c3ccc(Cl)cc3Cl)on2)CC1 | active: 15.8 µM | 
C(=N/n1c2ccccc2c2ccccc21)/c1ccco1 | inconclusive [inhibitor, partial curve] | 
NC(N)=NCCCCN=C(N)N | inconclusive [inhibitor, single point] | 
CCc1ncc(C(=O)c2ccc(OC)cc2)n1C | inconclusive [inhibitor, partial curve] | 
CCn1c(Cc2ccc(OC)cc2)nnc1SCC(=O)Nc1cccc(C(=O)OC)c1 | inconclusive [inhibitor, partial curve] | 
CCCc1cc(C(=O)Cc2ccc(C(=O)OCC)o2)c(O)cc1O | inconclusive [inhibitor, single point] | 
CCC(C)NC(=O)CCS(=O)(=O)c1ccc2c(c1)n(C)c(=O)c(=O)n2C (configuration not stated) | inconclusive [inhibitor, single point] | 
O=C(Nc1ccc(-c2nc3cccnc3s2)cc1)c1ccc(Br)o1 |  | inactive: -1.02%
CCCCCn1c(=N)n(CC(O)COc2ccccc2OC)c2ccccc21 (configuration not stated) | inconclusive [inhibitor, single point] | 
COc1ccc(N2Cc3cccc(C(=O)NC(C)CCc4ccco4)c3C2=O)cc1 (configuration not stated) | active: 20 µM | 
COC(=O)c1[nH]c2ccc(C)cc2c1NC(=O)Nc1ccccc1OC | active: 25.1 µM | 
N#Cc1c2c(c(=S)n(-c3ccccc3)c1N)CCCC2 | active: 1.58 µM | 
COCCNc1nc(-c2ccccc2OC)nc2ccccc12 | inconclusive [inhibitor, partial curve] | 
N#Cc1cccc(-c2nccc(-n3ccnc3)n2)c1 | active: 10 µM | 
CCOC(=O)N1CCN(S(=O)(=O)c2ccc(C(=O)Nc3nc4ccccc4s3)cc2)CC1 |  | inactive: -20.9%
COCCn1c(=O)c(-c2cccc(Cl)c2)nc2cncnc21 | inconclusive [inhibitor, single point] | 

Structure (SMILES) | Potency | activity change, negative = inhibition
O=C1CCCC2=C1C(c1cccc(Br)c1)n1nc(-c3ccco3)nc1N2 (configuration not stated) |  | inactive: -6.8%
O=C(Nc1ccc(F)cc1F)c1noc2c1CCC2 | inconclusive [inhibitor, single point] | 
O=C(Nc1nc(-c2ccc(Cl)s2)cs1)c1cccs1 | active: 25.1 µM | 
Cc1nc(NC(=O)c2ccccc2)sc1-c1csc(NCc2ccco2)n1 | inconclusive [inhibitor, single point] | 
c1cncc(Nc2nc(-c3ccncc3)cs2)c1 |  | inactive: 3.72%
COc1ccccc1N1C(=O)c2ccccc2NC1c1ccncc1 (configuration not stated) | active: 20 µM | 
CC1(C)CC(=O)C2=C(C1)Nc1[nH]c(=S)[nH]c(=O)c1C2c1ccccc1 (configuration not stated) | inconclusive [inhibitor, partial curve] | 
O=C(NC1CCCCC1)c1sc(=S)n2c1[nH]c(=O)c1ccccc12 | inconclusive [inhibitor, partial curve] | 
Cc1ccc2c(c1)NC(=O)C(CC(=O)Nc1ccc(CN3CCC(C)CC3)cc1)O2 (configuration not stated) |  | inactive: -0.75%
Cc1c(S(=O)(=O)O)oc2c1C(=O)C(=O)c1c-2ccc2c1CCCC2(C)C | inconclusive [inhibitor, partial curve] | 
Cc1cc(C)n2nc(C(=O)Nc3ccc4c(c3)OCO4)nc2n1 |  | inactive: -10.5%
COCCn1c(Sc2ccccc2)nc2c1c(=O)[nH]c(=O)n2C |  | inactive: -7.31%
Cc1cc2ccc(OC(=O)c3ccc(N=C(N)N)cc3)cc2oc1=O | inconclusive [inhibitor, single point] | 
Cc1nnc(SCc2ccccc2C#N)n1-c1ccccc1 | inconclusive [inhibitor, single point] | 
Cc1ccc(CNC(=O)CCCNC(=O)c2ccc(Cl)cc2)n1C | inconclusive [inhibitor, single point] | 
CN(C)CCCc1cc(C(=O)Nc2ccc(-c3ccncc3)cc2)ccc1O | inconclusive [inhibitor, single point] | 
O=C(Nc1cnccn1)c1cccc(C(F)(F)F)c1 | inconclusive [inhibitor, partial curve] | 
Cc1ccc(C2C(C(=O)c3cccs3)=C(O)C(=O)N2CCN2CCOCC2)o1 (configuration not stated) | inconclusive [inhibitor, partial curve] | 
Cc1cc(C(=O)CSc2nc3ccccc3n2CCC#N)c(C)n1Cc1cccs1 | inconclusive [inhibitor, single point] | 
CCCCN1CSC(=S)N(Cc2ccccc2)C1 | inconclusive [inhibitor, single point] | 
C=CCOn1c(=O)c(=O)n(OCc2ccccc2)c2ccccc21 | inconclusive [inhibitor, single point] | 
COC(=O)c1sc(NC(=O)c2ccc(Cn3cc(Cl)cn3)o2)c(C#N)c1C | inconclusive [inhibitor, partial curve] | 
CC(=O)C1=C(C)NC(SCC(=O)c2ccccc2)=C(C#N)C1c1ccco1 (configuration not stated) | inconclusive [inhibitor, partial curve] | 
